Reference: the supplement of paper PMC12217912
The other results are listed elsewhere or left out. The full chains were built here from the parent and the listed change. Inactive controls read about 0.05.

B1: TEV protease; numbered along this chain (parent)
chain: MGESLFKGPRDYNPISSSICHLTNESDGHTTSLYGIGFGPFIITNKHLFRRNNGTLVVQSLHGVFKVKDTTTLQQHLVDGRDMIIIRMPKDFPPFPQKLKFREPQREERICLVTTNFQTKSMSSMVSDTSCTFPSGDGIFWKHWIQTKDGQCGSPLVSTRDGFIVGIHSASNFTNTNNYFTSVPKNFMELLTNQEAQQWVSGWRLNADSVLWGGHKVFMVKPEEPFQPVKEATQL

Variants of: B1
Experiment: raw area under fraction-flipped curve 0-4 h after induction (AUC4h, not background-subtracted), DNA-recorder readout of cleavage of the substrate (dimensionless); higher = more cleavage of the substrate by the protease variant
Settings: temperature: 34 °C; time window: 0-4 h after rhamnose induction
Protocol: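 In vivo DNA recorder in E. coli TOP10(DE3) ΔrhaA at 34 °C. Each TEVp single-site mutant (parent TEVp 0) is paired with a single-site variant of the 7-mer TEVs (canonical ENLYFQ|S). The substrate sits between flexible linkers in a Bxb1-sfGFP-TEVs-SsrA fusion, so cleavage stabilises Bxb1 and speeds flipping of a recombination array, read by NGS. The value is the raw area under the fraction-flipped curve over 0-4 h after rhamnose induction (AUC4h), with ≥20 reads per time point. It is not background-subtracted; inactive controls average about 0.047.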
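Further: Bxb1 expression induced with 0.2% (w/v) L-rhamnose at OD600 near 0.5, cultures sampled hourly, flipped fraction per protease–substrate barcode pair counted by paired-end Illumina sequencing.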

Variant	area with substrate ENLYFQA	area with substrate ENLYFQC	area with substrate ENLYFQH	area with substrate ENLYFQL	area with substrate ENLYFQM	area with substrate ENLYFQN	area with substrate ENLYFQQ	area with substrate ENLYFQR	area with substrate ENLYFQS	area with substrate ENLYFQT	area with substrate ENLYFQV	area with substrate ENLYFQY	area with substrate ENLYFQD	area with substrate ENLYFQI	area with substrate ENLYFQK	area with substrate ENLYFQP	area with substrate ENLYFQF	area with substrate ENLYFQG	area with substrate ENLYFQW	area with substrate ENLYFQE
F41L	0.123	0.122	0.0634	0.0661	0.0734	0.0743	0.0763	0.0534	0.105	0.0814	0.0392	0.0733	–	–	–	–	–	–	–	–
P40E	0.117	0.153	0.0864	0.0584	–	–	–	–	0.111	0.0564	0.0529	–	0.0808	0.0702	0.0611	0.0474	–	–	–	–
V126R	0.115	0.141	0.0798	0.0623	0.0995	0.0655	–	0.0595	0.118	0.0708	0.0539	0.0703	0.073	0.0589	0.0835	0.0718	0.0851	0.112	0.0674	–
Q151I	0.0878	0.0953	0.0696	0.0522	–	–	–	0.0574	0.0836	0.0541	–	0.0753	0.0687	–	0.071	0.0605	–	0.0964	0.0619	0.0592
G166N	0.0419	0.049	0.0504	0.0483	0.0532	–	–	0.0565	0.0506	0.0593	0.0537	–	–	0.0477	–	–	–	–	0.0557	–
N13D	0.0814	0.101	0.0748	0.0602	0.0787	0.103	–	0.0648	0.0986	0.0713	0.0444	0.0744	0.076	0.046	0.0679	0.0553	0.107	0.114	0.0419	–
S130Q	0.0968	–	0.0758	–	0.0829	–	–	–	0.107	0.0735	–	0.0853	0.0844	–	–	–	–	0.103	–	0.05
C20V	0.0852	0.128	0.0944	0.0694	0.086	0.0791	–	0.0607	0.111	0.0695	0.0521	0.0661	0.0797	0.0645	0.0802	0.0482	0.0664	0.118	0.0646	–
F49C	0.0735	0.0744	0.0645	0.0544	0.0665	0.0458	–	0.0527	0.0676	0.0538	–	–	0.0573	0.0636	0.0539	0.0486	–	0.0682	–	0.0641
Q59Y	0.124	0.0911	–	0.0518	–	–	–	–	0.105	0.0605	–	–	0.0739	–	0.0606	–	0.0609	0.0652	0.0534	0.0776
P14S	0.094	0.0987	0.0791	0.0803	0.089	0.0784	0.0801	0.0607	0.0981	0.058	0.0455	0.0896	0.0766	0.0549	0.0642	0.0622	–	0.0914	0.0648	–
S26G	0.0952	0.147	–	–	–	–	–	–	0.0945	–	0.0522	0.0956	0.0853	–	–	–	–	0.0938	0.0605	–
K66V	0.111	0.138	–	0.0571	0.0822	–	–	0.0626	0.115	0.0556	–	0.08	–	0.0607	0.0634	0.0538	–	0.0937	0.0686	–
P222Q	0.0819	0.0744	0.086	0.06	0.0849	0.0729	–	0.0447	0.0981	0.0662	0.0417	0.0615	–	0.0861	0.0589	–	0.0728	0.104	0.0678	–
K142H	0.0831	0.126	0.079	0.0665	0.0763	0.0758	0.0801	0.0597	0.105	0.0726	0.06	0.0892	0.0893	0.0617	0.0639	0.0699	0.0813	0.101	0.0613	0.0659
H76S	0.0777	0.12	0.0679	0.0607	0.0789	0.0737	0.0901	0.0446	0.0936	0.0638	0.0578	0.0583	0.051	–	0.0735	0.0547	0.0711	0.0898	–	0.0696
H76I	0.0809	0.0824	–	0.0591	0.0698	0.0618	–	–	0.0837	–	–	–	–	–	0.0721	–	–	0.0805	0.0537	–
D82F	0.0501	0.0445	0.0489	0.0507	0.0461	0.0462	–	0.0472	0.0558	0.0653	–	0.046	0.0402	0.0517	0.0705	0.0496	0.0532	–	0.0427	–
M122L	0.0911	0.126	–	–	0.0924	0.0701	–	0.0567	0.106	0.0655	0.0681	0.095	–	0.0545	0.071	–	–	–	0.061	–
T176W	0.062	–	0.0465	–	0.0551	–	–	0.0543	0.0635	0.0515	–	0.0618	–	0.0633	0.0524	–	–	–	0.073	–
V220A	0.102	0.163	0.0961	0.0684	0.0953	–	–	0.0486	0.107	–	–	0.0632	0.0753	–	0.0683	0.0761	–	–	0.0661	0.0624
I36L	0.0785	–	0.0837	0.0713	0.0946	0.125	–	0.0642	0.109	0.0642	0.066	–	–	0.0757	0.0746	0.0228	0.0819	–	0.0298	–
F38M	0.0929	0.113	–	0.0709	0.0644	0.0754	–	0.05	0.0899	0.0559	0.0701	–	0.0603	0.0486	0.0577	0.0589	0.066	0.0867	0.0634	–
F38L	0.0828	0.0932	0.067	0.0491	0.0816	0.0626	0.0697	0.0543	0.0864	0.046	0.0601	0.0544	0.0638	0.0532	0.0605	0.0557	0.0701	0.0857	0.0592	0.064
N116K	0.0688	–	–	–	–	–	–	0.0557	0.106	0.0891	–	0.11	–	–	–	–	–	0.0971	–	–
